Experimental data: US20260166021A1, “POLYMORPHIC FORMS OF A SOLUBLE EPOXIDE HYDROLASE INHIBITOR AND FORMULATIONS THEREOF” (EicOsis, LLC, priority 2022, published 2026)

Experiment: Differential scanning calorimetry (DSC): heat of fusion, thermal events
Assay type: physicochemical
Description: Differential scanning calorimetry analyses were performed on each sample “as is.” Unless otherwise specified, samples were weighed in an aluminum pan, covered with a pierced lid, and then crimped and analyzed from 30-300° C. ramped at 10° C./min.
The DSC data were used to determine the heat of fusion for Forms A, B, D, and F, based on their heats of fusion as measured during conversion from Form C.

CC[C@H](C)C(=O)N1CCC(NC(=O)Nc2ccc(OC(F)(F)F)c(F)c2)CC1 [L]
DSC Thermal Events, Endo: dehydration of bound water/desolvation of pattern L (first dehydration/desolvation endotherm): 114 °C dehydration of bound water/
DSC Thermal Events, Endo: dehydration of bound water/desolvation of pattern L (second dehydration/desolvation endotherm): 124 °C dehydration of bound water/

Some values that stand alone complete this part of the results.
